The supplement of paper PMC10369915
The other results are listed elsewhere or left out. No stated cut-off is given here; in the data, active = 3.2 or more and inactive = the rest. Most of these values are background signal.

Target: SHP2 C-SH2 domain E139D
Experiment: enrichment score (SH2-bound / input frequency) (ratio); bacterial display of known human phosphotyrosine sites (pTyr-Var adds point mutants) read by sequencing; higher = stronger binding; tyrosines were phosphorylated by kinases first
Conditions: peptide library: pTyr-Var
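Further: displayed peptides selected on beads carrying the immobilized SH2 domain, with library peptides lacking any tyrosine serving as negative controls.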

Enrichment score, active:
LIFVSYDDWDY [GRIN2A_Y281_S278F] 3.78

Enrichment score, inactive:
EKMWTYMPSAE [GRIA4_Y695_R697P] 1
RMGNLYDIDED [GRIN2A_Y1246] 0.942
GHNNVYISEHV [GRIN2A_Y1423_D1421N] 0.645
GHNDVYISKHV [GRIN2A_Y1423_E1426K] 0.903
GHNDVYILEHV [GRIN2A_Y1423_S1425L] 1.04
EHVMPYAANKN [GRIN2A_Y1431] 0.566
IGEVVYQWAVM [GRIN2A_Y502_R504W] 1.12
LDTFIYDAAVL [GRIN2A_Y730_A727T] 1.78
LDAFIYNAAVL [GRIN2A_Y730_D731N] 0.55
EIELAYRRRPP [GRIN2B_Y1109] 0.195
FASTGYVIAIQ [GRIN2B_Y762_G763V] 1.11
PDMHSYVVRYN [GRIN2D_Y732_M733V] 0.868
PDMHSYVVRFN [GRIN2D_Y732_M733V_YF] 0.992
SYVVRYNQPRV [GRIN2D_Y736_M733V] 0.91
SFVVRYNQPRV [GRIN2D_Y736_M733V_YF] 1.26
SFMVRYNQPRV [GRIN2D_Y736_YF] 1.49
EWRSPYGLTPR [GRIN3B_Y601] 0.755
EWCSPYGLTPR [GRIN3B_Y601_R598C] 0.899

Target: SHP2 C-SH2 domain wild-type
Experiment: as above
Conditions: peptide library: pTyr-Var

Enrichment score, inactive:
EKMWTYMPSAE [GRIA4_Y695_R697P] 0.9
RMGNLYDIDED [GRIN2A_Y1246] 0.6
GHNNVYISEHV [GRIN2A_Y1423_D1421N] 0.558
GHNDVYISKHV [GRIN2A_Y1423_E1426K] 0.677
GHNDVYILEHV [GRIN2A_Y1423_S1425L] 0.764
EHVMPYAANKN [GRIN2A_Y1431] 0.61
LIFVSYDDWDY [GRIN2A_Y281_S278F] 3.12
IGEVVYQWAVM [GRIN2A_Y502_R504W] 0.927
LDTFIYDAAVL [GRIN2A_Y730_A727T] 1.23
LDAFIYNAAVL [GRIN2A_Y730_D731N] 0.566
EIELAYRRRPP [GRIN2B_Y1109] 0.194
FASTGYVIAIQ [GRIN2B_Y762_G763V] 0.883
PDMHSYVVRYN [GRIN2D_Y732_M733V] 0.756
PDMHSYVVRFN [GRIN2D_Y732_M733V_YF] 1.12
SYVVRYNQPRV [GRIN2D_Y736_M733V] 0.821
SFVVRYNQPRV [GRIN2D_Y736_M733V_YF] 0.896
SFMVRYNQPRV [GRIN2D_Y736_YF] 1.28
EWRSPYGLTPR [GRIN3B_Y601] 0.62
EWCSPYGLTPR [GRIN3B_Y601_R598C] 0.772

Target: SHP2 N-SH2 domain L43F
Experiment: as above
Conditions: peptide library: pTyr-Var

Enrichment score, active:
LIFVSYDDWDY [GRIN2A_Y281_S278F] 3.26

Enrichment score, inactive:
EKMWTYMPSAE [GRIA4_Y695_R697P] 0.938
RMGNLYDIDED [GRIN2A_Y1246] 0.744
GHNNVYISEHV [GRIN2A_Y1423_D1421N] 0.86
GHNDVYISKHV [GRIN2A_Y1423_E1426K] 0.633
GHNDVYILEHV [GRIN2A_Y1423_S1425L] 0.918
EHVMPYAANKN [GRIN2A_Y1431] 0.696
IGEVVYQWAVM [GRIN2A_Y502_R504W] 0.95
LDTFIYDAAVL [GRIN2A_Y730_A727T] 1.64
LDAFIYNAAVL [GRIN2A_Y730_D731N] 0.78
EIELAYRRRPP [GRIN2B_Y1109] 0.22
FASTGYVIAIQ [GRIN2B_Y762_G763V] 0.889
PDMHSYVVRYN [GRIN2D_Y732_M733V] 0.8
PDMHSYVVRFN [GRIN2D_Y732_M733V_YF] 0.938
SYVVRYNQPRV [GRIN2D_Y736_M733V] 0.839
SFVVRYNQPRV [GRIN2D_Y736_M733V_YF] 1.21
SFMVRYNQPRV [GRIN2D_Y736_YF] 1.3
EWRSPYGLTPR [GRIN3B_Y601] 0.578
EWCSPYGLTPR [GRIN3B_Y601_R598C] 0.971

Target: SHP2 N-SH2 domain T42A
Experiment: as above
Conditions: peptide library: pTyr-Var

Enrichment score, inactive:
EKMWTYMPSAE [GRIA4_Y695_R697P] 1.17
RMGNLYDIDED [GRIN2A_Y1246] 0.854
GHNNVYISEHV [GRIN2A_Y1423_D1421N] 0.569
GHNDVYISKHV [GRIN2A_Y1423_E1426K] 0.615
GHNDVYILEHV [GRIN2A_Y1423_S1425L] 0.895
EHVMPYAANKN [GRIN2A_Y1431] 0.53
LIFVSYDDWDY [GRIN2A_Y281_S278F] 2.58
IGEVVYQWAVM [GRIN2A_Y502_R504W] 0.814
LDTFIYDAAVL [GRIN2A_Y730_A727T] 1.61
LDAFIYNAAVL [GRIN2A_Y730_D731N] 0.608
EIELAYRRRPP [GRIN2B_Y1109] 0.41
FASTGYVIAIQ [GRIN2B_Y762_G763V] 1.19
PDMHSYVVRYN [GRIN2D_Y732_M733V] 0.838
PDMHSYVVRFN [GRIN2D_Y732_M733V_YF] 1.04
SYVVRYNQPRV [GRIN2D_Y736_M733V] 1.14
SFVVRYNQPRV [GRIN2D_Y736_M733V_YF] 0.948
SFMVRYNQPRV [GRIN2D_Y736_YF] 1.4
EWRSPYGLTPR [GRIN3B_Y601] 0.606
EWCSPYGLTPR [GRIN3B_Y601_R598C] 0.607

Target: SHP2 N-SH2 domain T52S
Experiment: as above
Conditions: peptide library: pTyr-Var

Enrichment score, active:
LIFVSYDDWDY [GRIN2A_Y281_S278F] 3.23

Enrichment score, inactive:
EKMWTYMPSAE [GRIA4_Y695_R697P] 0.81
RMGNLYDIDED [GRIN2A_Y1246] 1.18
GHNNVYISEHV [GRIN2A_Y1423_D1421N] 0.851
GHNDVYISKHV [GRIN2A_Y1423_E1426K] 0.495
GHNDVYILEHV [GRIN2A_Y1423_S1425L] 0.875
EHVMPYAANKN [GRIN2A_Y1431] 0.638
IGEVVYQWAVM [GRIN2A_Y502_R504W] 1.05
LDTFIYDAAVL [GRIN2A_Y730_A727T] 1.3
LDAFIYNAAVL [GRIN2A_Y730_D731N] 0.624
EIELAYRRRPP [GRIN2B_Y1109] 0.255
FASTGYVIAIQ [GRIN2B_Y762_G763V] 0.843
PDMHSYVVRYN [GRIN2D_Y732_M733V] 0.91
PDMHSYVVRFN [GRIN2D_Y732_M733V_YF] 0.883
SYVVRYNQPRV [GRIN2D_Y736_M733V] 0.82
SFVVRYNQPRV [GRIN2D_Y736_M733V_YF] 0.956
SFMVRYNQPRV [GRIN2D_Y736_YF] 1.36
EWRSPYGLTPR [GRIN3B_Y601] 0.682
EWCSPYGLTPR [GRIN3B_Y601_R598C] 0.857

Target: SHP2 N-SH2 domain wild-type
Experiment: as above
Conditions: peptide library: pTyr-Var

Enrichment score, inactive:
EKMWTYMPSAE [GRIA4_Y695_R697P] 0.882
RMGNLYDIDED [GRIN2A_Y1246] 0.823
GHNNVYISEHV [GRIN2A_Y1423_D1421N] 0.747
GHNDVYISKHV [GRIN2A_Y1423_E1426K] 0.685
GHNDVYILEHV [GRIN2A_Y1423_S1425L] 0.733
EHVMPYAANKN [GRIN2A_Y1431] 0.651
LIFVSYDDWDY [GRIN2A_Y281_S278F] 3.05
IGEVVYQWAVM [GRIN2A_Y502_R504W] 1.03
LDTFIYDAAVL [GRIN2A_Y730_A727T] 1.09
LDAFIYNAAVL [GRIN2A_Y730_D731N] 0.54
EIELAYRRRPP [GRIN2B_Y1109] 0.261
FASTGYVIAIQ [GRIN2B_Y762_G763V] 0.889
PDMHSYVVRYN [GRIN2D_Y732_M733V] 0.733
PDMHSYVVRFN [GRIN2D_Y732_M733V_YF] 0.749
SYVVRYNQPRV [GRIN2D_Y736_M733V] 0.739
SFVVRYNQPRV [GRIN2D_Y736_M733V_YF] 1.06
SFMVRYNQPRV [GRIN2D_Y736_YF] 1.34
EWRSPYGLTPR [GRIN3B_Y601] 0.783
EWCSPYGLTPR [GRIN3B_Y601_R598C] 0.95
